{"source": "the supplement of paper PMC11880418", "note": "Where a name gives a salt, the structure may show the parent alone. The list shows a part of the results. The data scatter; read single values as rough.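 Further: High-content imaging of ALDEFLUOR-stained cells with Hoechst-labelled nuclei in 384-well plates, triplicate wells, scored as Z-score against 0.1% DMSO vehicle, negative meaning fewer ALDHbr cells.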", "data": [{"tested_on": "PANC1", "test": "ALDHbr (CSC) cell proportion score relative to DMSO vehicle (ratio to DMSO); higher = more CSC (ALDHbr) cells remaining", "conditions": "10 µM; 72 h", "values": [{"compound": "CCCC(=O)Nc1ncnc2c1ncn2[C@@H]1O[C@@H]2COP(=O)(O)O[C@H]2[C@H]1OC(=O)CCC", "note": "[Bucladesine sodium salt]", "ALDHbr": 1}, {"compound": "CCOC(=O)NNc1nncc2ccccc12", "note": "[Todralazine hydrochloride]", "ALDHbr": 1.11}, {"compound": "COc1ccccc1OCC(O)CO", "note": "(stereo not drawn) [Guaifenesin]", "ALDHbr": 0.921}, {"compound": "Nc1nc2n[nH]nc2c(=O)[nH]1", "note": "[Azaguanine-8]", "ALDHbr": 0.427}, {"compound": "O=C(NC(Cc1cc(=O)[nH]c2ccccc12)C(=O)O)c1ccc(Cl)cc1", "note": "(stereo not drawn) [Rebamipide]", "ALDHbr": 0.973}, {"compound": "Cc1ccsc1/C=C/C1=NCCCN1C", "note": "[Morantel tartrate]", "ALDHbr": 0.727}, {"compound": "Cc1[nH]cnc1CN1CCc2c(c3ccccc3n2C)C1=O", "note": "[Alosetron hydrochloride]", "ALDHbr": 0.997}, {"compound": "Nc1nc(=O)[nH]cc1F", "note": "[Flucytosine]", "ALDHbr": 0.811}, {"compound": "Nc1cc(C(Cl)=C(Cl)Cl)c(S(N)(=O)=O)cc1S(N)(=O)=O", "note": "[Clorsulon]", "ALDHbr": 0.963}, {"compound": "COCCCC/C(=N\\OCCN)c1ccc(C(F)(F)F)cc1", "note": "[Fluvoxamine maleate]", "ALDHbr": 0.829}, {"compound": "Nc1ccc(S(=O)(=O)NC(=O)c2ccccc2)cc1", "note": "[Sulfabenzamide]", "ALDHbr": 0.928}, {"compound": "CN1CCC[C@@H]1CCO[C@](C)(c1ccccc1)c1ccc(Cl)cc1", "note": "[Clemastine fumarate]", "ALDHbr": 0.998}, {"compound": "Cn1c(=O)c2nc[nH]c2n(C)c1=O", "note": "[Theophylline monohydrate]", "ALDHbr": 0.956}, {"compound": "CC1(C)S[C@@H]2[C@H](NC(=O)[C@H](C(=O)O)c3ccsc3)C(=O)N2[C@H]1C(=O)O", "note": "[Ticarcillin sodium]", "ALDHbr": 0.931}, {"compound": "NCCc1c[nH]cn1", "note": "[Histamine dihydrochloride]", "ALDHbr": 1.02}, {"compound": "CC(C)(Oc1ccc(C2CC2(Cl)Cl)cc1)C(=O)O", "note": "(stereo not drawn) [Ciprofibrate]", "ALDHbr": 0.93}, {"compound": "CC(C)(C)NCC(O)COc1cccc2c1CC(O)C(O)C2", "note": "(stereo not drawn) [Nadolol]", "ALDHbr": 0.902}, {"compound": "CCc1oc2ccccc2c1C(=O)c1cc(Br)c(O)c(Br)c1", "note": "[Benzbromarone]", "ALDHbr": 0.961}, {"compound": "C[C@]12CC[C@@H]3c4ccc(O)cc4CC[C@H]3[C@@H]1CC[C@@H]2O", "note": "[Estradiol-17 beta]", "ALDHbr": 0.794}, {"compound": "CC(=O)[C@H]1CC[C@H]2[C@@H]3CCC4=CC(=O)CC[C@]4(C)[C@H]3CC[C@]12C", "note": "[Progesterone]", "ALDHbr": 0.77}, {"compound": "C[C@H](N)[C@H](O)c1cccc(O)c1", "note": "[Metaraminol bitartrate]", "ALDHbr": 0.752}, {"compound": "O=C1c2c(O)cccc2Cc2cccc(O)c21", "note": "[Anthralin]", "ALDHbr": 0.988}, {"compound": "CCCCOc1cc(C(=O)OCCN(CC)CC)ccc1N", "note": "[Benoxinate hydrochloride]", "ALDHbr": 0.992}, {"compound": "O=C(NCC(O)CO)c1c(I)c(C(=O)NCC(O)CO)c(I)c(N(CCO)C(=O)CO)c1I", "note": "(stereo not drawn) [Ioversol]", "ALDHbr": 0.857}, {"compound": "COc1ccc(CN2CCN(C(c3ccc(F)cc3)c3ccc(F)cc3)CC2)c(OC)c1OC", "note": "[Lomerizine hydrochloride]", "ALDHbr": 0.949}, {"compound": "C[C@]12CC[C@@H]3c4ccc(O)cc4CC[C@H]3[C@@H]1CCC2=O", "note": "[Estrone]", "ALDHbr": 0.673}, {"compound": "Oc1c(Cl)cc(Cl)c2cccnc12", "note": "[Chloroxine]", "ALDHbr": 1.17}, {"compound": "CC[C@H]1OC(=O)[C@H](C)[C@@H](O[C@H]2C[C@@](C)(OC)[C@@H](O)[C@H](C)O2)[C@H](C)[C@@H](O[C@@H]2O[C@H](C)C[C@H](N(C)C)[C@H]2O)[C@](C)(OC)C[C@@H](C)C(=O)[C@H](C)[C@@H](O)[C@]1(C)O", "note": "[Clarithromycin]", "ALDHbr": 0.981}, {"compound": "CN(C)CCOc1ccc(/C(=C(/CCCl)c2ccccc2)c2ccccc2)cc1", "note": "[Toremifene]", "ALDHbr": 0.916}, {"compound": "CC=CC1=C(C(=O)O)N2C(=O)[C@@H](NC(=O)[C@H](N)c3ccc(O)cc3)[C@H]2SC1", "note": "[Cefprozil]", "ALDHbr": 0.924}, {"compound": "CNCC(O)c1ccc(O)c(O)c1", "note": "(stereo not drawn) [Racepinephrine hydrochloride]", "ALDHbr": 0.796}, {"compound": "CN1CCCN(C(c2ccccc2)c2ccc(Cl)cc2)CC1", "note": "(stereo not drawn) [Homochlorcyclizine dihydrochloride]", "ALDHbr": 0.934}, {"compound": "CCN1CCN(c2cc3c(cc2F)c(=O)c(C(=O)O)cn3C2CC2)CC1", "note": "[Enrofloxacin]", "ALDHbr": 0.89}, {"compound": "CS(=O)(=O)c1ccc(C2=C(c3ccccc3)C(=O)OC2)cc1", "note": "[Rofecoxib]", "ALDHbr": 0.929}, {"compound": "CC(=O)Oc1ccc(C(c2ccc(OC(C)=O)cc2)c2ccccn2)cc1", "note": "[Bisacodyl]", "ALDHbr": 0.965}, {"compound": "CCOC(=O)C1=C(C)NC(C)=C(C(=O)OC)C1c1cccc(Cl)c1Cl", "note": "(stereo not drawn) [Felodipine]", "ALDHbr": 0.78}, {"compound": "N=C(N)NS(=O)(=O)c1ccc(N)cc1", "note": "[Sulfaguanidine]", "ALDHbr": 1.01}, {"compound": "CN(C)CC/C=C1\\c2ccccc2CSc2ccccc21", "note": "[Dosulepin hydrochloride]", "ALDHbr": 1.02}, {"compound": "CCCNC(C)C(=O)Nc1c(C)csc1C(=O)OC", "note": "(stereo not drawn) [Articaine hydrochloride]", "ALDHbr": 0.954}]}, {"tested_on": "SUM159", "test": "ALDHbr (CSC) cell proportion score relative to DMSO vehicle (ratio to DMSO); breast (SUM159) / gastric (MKN45) / pancreatic (PANC1) / colon cancer lines; ALDHbr cells have high ALDH activity and are rich in cancer stem cells (CSC); higher = more CSC (ALDHbr) cells remaining", "conditions": "10 µM; 72 h", "values": [{"compound": "CCCC(=O)Nc1ncnc2c1ncn2[C@@H]1O[C@@H]2COP(=O)(O)O[C@H]2[C@H]1OC(=O)CCC", "note": "[Bucladesine sodium salt]", "ALDHbr": 1.01}, {"compound": "CCOC(=O)NNc1nncc2ccccc12", "note": "[Todralazine hydrochloride]", "ALDHbr": 1.14}, {"compound": "COc1ccccc1OCC(O)CO", "note": "(stereo not drawn) [Guaifenesin]", "ALDHbr": 1.21}, {"compound": "Nc1nc2n[nH]nc2c(=O)[nH]1", "note": "[Azaguanine-8]", "ALDHbr": 0.82}, {"compound": "O=C(NC(Cc1cc(=O)[nH]c2ccccc12)C(=O)O)c1ccc(Cl)cc1", "note": "(stereo not drawn) [Rebamipide]", "ALDHbr": 1.12}, {"compound": "Cc1ccsc1/C=C/C1=NCCCN1C", "note": "[Morantel tartrate]", "ALDHbr": 1.07}, {"compound": "Cc1[nH]cnc1CN1CCc2c(c3ccccc3n2C)C1=O", "note": "[Alosetron hydrochloride]", "ALDHbr": 0.804}, {"compound": "Nc1nc(=O)[nH]cc1F", "note": "[Flucytosine]", "ALDHbr": 1.27}, {"compound": "Nc1cc(C(Cl)=C(Cl)Cl)c(S(N)(=O)=O)cc1S(N)(=O)=O", "note": "[Clorsulon]", "ALDHbr": 1.24}, {"compound": "COCCCC/C(=N\\OCCN)c1ccc(C(F)(F)F)cc1", "note": "[Fluvoxamine maleate]", "ALDHbr": 0.873}, {"compound": "Nc1ccc(S(=O)(=O)NC(=O)c2ccccc2)cc1", "note": "[Sulfabenzamide]", "ALDHbr": 1.14}, {"compound": "CN1CCC[C@@H]1CCO[C@](C)(c1ccccc1)c1ccc(Cl)cc1", "note": "[Clemastine fumarate]", "ALDHbr": 0.576}, {"compound": "Cn1c(=O)c2nc[nH]c2n(C)c1=O", "note": "[Theophylline monohydrate]", "ALDHbr": 1.34}, {"compound": "CC1(C)S[C@@H]2[C@H](NC(=O)[C@H](C(=O)O)c3ccsc3)C(=O)N2[C@H]1C(=O)O", "note": "[Ticarcillin sodium]", "ALDHbr": 0.824}, {"compound": "NCCc1c[nH]cn1", "note": "[Histamine dihydrochloride]", "ALDHbr": 1.3}, {"compound": "CC(C)(Oc1ccc(C2CC2(Cl)Cl)cc1)C(=O)O", "note": "(stereo not drawn) [Ciprofibrate]", "ALDHbr": 1.03}, {"compound": "CC(C)(C)NCC(O)COc1cccc2c1CC(O)C(O)C2", "note": "(stereo not drawn) [Nadolol]", "ALDHbr": 0.9}, {"compound": "CCc1oc2ccccc2c1C(=O)c1cc(Br)c(O)c(Br)c1", "note": "[Benzbromarone]", "ALDHbr": 0.813}, {"compound": "C[C@]12CC[C@@H]3c4ccc(O)cc4CC[C@H]3[C@@H]1CC[C@@H]2O", "note": "[Estradiol-17 beta]", "ALDHbr": 1.09}, {"compound": "CC(=O)[C@H]1CC[C@H]2[C@@H]3CCC4=CC(=O)CC[C@]4(C)[C@H]3CC[C@]12C", "note": "[Progesterone]", "ALDHbr": 0.833}, {"compound": "C[C@H](N)[C@H](O)c1cccc(O)c1", "note": "[Metaraminol bitartrate]", "ALDHbr": 1.91}, {"compound": "O=C1c2c(O)cccc2Cc2cccc(O)c21", "note": "[Anthralin]", "ALDHbr": 1.96}, {"compound": "CCCCOc1cc(C(=O)OCCN(CC)CC)ccc1N", "note": "[Benoxinate hydrochloride]", "ALDHbr": 1.22}, {"compound": "O=C(NCC(O)CO)c1c(I)c(C(=O)NCC(O)CO)c(I)c(N(CCO)C(=O)CO)c1I", "note": "(stereo not drawn) [Ioversol]", "ALDHbr": 1.15}, {"compound": "COc1ccc(CN2CCN(C(c3ccc(F)cc3)c3ccc(F)cc3)CC2)c(OC)c1OC", "note": "[Lomerizine hydrochloride]", "ALDHbr": 0.769}, {"compound": "C[C@]12CC[C@@H]3c4ccc(O)cc4CC[C@H]3[C@@H]1CCC2=O", "note": "[Estrone]", "ALDHbr": 0.949}, {"compound": "Oc1c(Cl)cc(Cl)c2cccnc12", "note": "[Chloroxine]", "ALDHbr": 0.243}, {"compound": "CC[C@H]1OC(=O)[C@H](C)[C@@H](O[C@H]2C[C@@](C)(OC)[C@@H](O)[C@H](C)O2)[C@H](C)[C@@H](O[C@@H]2O[C@H](C)C[C@H](N(C)C)[C@H]2O)[C@](C)(OC)C[C@@H](C)C(=O)[C@H](C)[C@@H](O)[C@]1(C)O", "note": "[Clarithromycin]", "ALDHbr": 0.917}, {"compound": "CN(C)CCOc1ccc(/C(=C(/CCCl)c2ccccc2)c2ccccc2)cc1", "note": "[Toremifene]", "ALDHbr": 0.615}, {"compound": "CC=CC1=C(C(=O)O)N2C(=O)[C@@H](NC(=O)[C@H](N)c3ccc(O)cc3)[C@H]2SC1", "note": "[Cefprozil]", "ALDHbr": 0.941}, {"compound": "CNCC(O)c1ccc(O)c(O)c1", "note": "(stereo not drawn) [Racepinephrine hydrochloride]", "ALDHbr": 1.73}, {"compound": "CN1CCCN(C(c2ccccc2)c2ccc(Cl)cc2)CC1", "note": "(stereo not drawn) [Homochlorcyclizine dihydrochloride]", "ALDHbr": 0.583}, {"compound": "CCN1CCN(c2cc3c(cc2F)c(=O)c(C(=O)O)cn3C2CC2)CC1", "note": "[Enrofloxacin]", "ALDHbr": 0.984}, {"compound": "CS(=O)(=O)c1ccc(C2=C(c3ccccc3)C(=O)OC2)cc1", "note": "[Rofecoxib]", "ALDHbr": 1.45}, {"compound": "CC(=O)Oc1ccc(C(c2ccc(OC(C)=O)cc2)c2ccccn2)cc1", "note": "[Bisacodyl]", "ALDHbr": 1.16}, {"compound": "CCOC(=O)C1=C(C)NC(C)=C(C(=O)OC)C1c1cccc(Cl)c1Cl", "note": "(stereo not drawn) [Felodipine]", "ALDHbr": 1.72}, {"compound": "N=C(N)NS(=O)(=O)c1ccc(N)cc1", "note": "[Sulfaguanidine]", "ALDHbr": 1.03}, {"compound": "CN(C)CC/C=C1\\c2ccccc2CSc2ccccc21", "note": "[Dosulepin hydrochloride]", "ALDHbr": 0.646}, {"compound": "CCCNC(C)C(=O)Nc1c(C)csc1C(=O)OC", "note": "(stereo not drawn) [Articaine hydrochloride]", "ALDHbr": 1.04}]}]}
